Data on 97 compounds can be found in PubChem BioAssay AID485344 (National Center for Advancing Translational Sciences (NCATS), 2010).

About 6,900 (2%) of roughly 340,000 compounds were called active. Rule as the data show it: active = inhibition above about 30%; inactive = below that, where a call was filed. This is a selection; strong and weak results do not stand in their true shares. Where no call is shown, the source filed none.

The target in the assay is D(2) dopamine receptor (Homo sapiens) (UniProt P14416). Description: HTS Assay for Allosteric Antagonists of the Human D2 Dopamine Receptor: Primary Screen for Antagonists. Also: 0% is about no effect. The note with it: HEK293 TREx D2 cells, calcium flux, dopamine EC80; at 10 µM; stronger effect = higher value. In a few lines: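 In this primary screen, negative modulation is detected by tracking calcium flux after an EC80 dopamine challenge in inducible HEK293 T-REx D2 cells preexposed to test compound for 180 s.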
UniProt P14416, sequence (P14416 whole entry, looked up): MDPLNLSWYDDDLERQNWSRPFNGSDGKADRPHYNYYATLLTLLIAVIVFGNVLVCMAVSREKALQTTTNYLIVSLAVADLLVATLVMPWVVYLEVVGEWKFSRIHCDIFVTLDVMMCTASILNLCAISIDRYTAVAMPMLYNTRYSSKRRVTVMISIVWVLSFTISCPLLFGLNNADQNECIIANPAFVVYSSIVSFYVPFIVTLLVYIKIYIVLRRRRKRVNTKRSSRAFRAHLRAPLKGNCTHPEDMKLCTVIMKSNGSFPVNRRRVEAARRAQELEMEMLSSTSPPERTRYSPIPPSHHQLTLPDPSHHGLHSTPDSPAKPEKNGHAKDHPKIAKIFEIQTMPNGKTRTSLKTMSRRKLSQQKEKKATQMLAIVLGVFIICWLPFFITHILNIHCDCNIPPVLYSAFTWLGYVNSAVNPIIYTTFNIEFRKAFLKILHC
(A change in cytosolic calcium serves as a functional read-out for many receptors and channels.)
Usually inhibition stands for the drop in the measured response relative to a control, in per cent. For `COc1cccc(-n2cc(C(=O)Oc3cccc(C(F)(F)F)c3)c3ccccc3c2=O)c1`, the inhibition turned out to be 27.4%.
For the compound `COC(C[C@H](O)C[C@H](O)[C@H](C)OCc1ccccc1)OC`, the inhibition is active: 37.8%.
In the case of `CC(C)OC(=O)C(CC(=O)O)NCc1ccccc1` (configuration not stated), the inhibition was active: 68.2%.
Consider `CCc1noc(C)c1C(=O)NNC(=O)c1ccc(Br)cc1`, for which the inhibition was active: 36.7%.
The value for `Cc1ccc(O)c(NC(=O)c2noc3c2CCCCC3)c1` was 0.384%.
The value for `CC(=O)N1c2ccccc2CC1C(=O)N1CCN(c2cccc(Cl)c2)CC1` (configuration not stated) was -0.898%.
For the compound `O=C(CC1C(=O)N(c2ccc(F)cc2)C(=O)N1Cc1ccc2c(c1)OCO2)Nc1ccc(F)cc1` (configuration not stated), the inhibition stood at 2.57%.
As for `Cc1cc2c(cc1S(=O)(=O)CCC(=O)NC1CCC(C)CC1)OCC(=O)N2` (configuration not stated), the figure is -23.3%; as for `Cc1ccc(-c2nnc(NC(=O)c3ccc4c(c3)OCCO4)o2)c(C)c1`, 15.5%.
The value for `O=C1CC(c2nnc(Cc3ccc(Cl)cc3)o2)CN1c1ccccc1` (configuration not stated) was -2.01%; that for `COc1ccccc1-c1nnc2n(CCc3ccccc3)c(=O)c3ccccc3n12` was 16.7%; that for `O=C(C[n+]1cc(-c2ccccc2)n2c1CCC2)N1c2ccccc2Sc2ccccc21` was active: 36.8%.
On to `Cc1ccc(C)c(Cn2c(=O)n(Cc3ccc(C(=O)NC4CCN(Cc5ccccc5)CC4)cc3)c(=O)c3ccccc32)c1`, for which the inhibition was determined as 18.9%.
With `Cc1cc2nc(-c3ccc(Cl)cc3)cc(C(F)(F)F)n2n1`, the inhibition worked out at 0.554%.
As for `O=S(=O)(NCCc1csc2nc(-c3ccc(Cl)cc3)nn12)c1ccc(Oc2ccccc2)cc1`, the figure is -4.24%; as for `Cc1ccccc1-c1nc(C(N)=O)c2c(n1)n(-c1ccc3c(c1)OCO3)c(=O)n2C`, 5.52%.
As for `CN(C)S(=O)(=O)c1ccc2c(c1)N(CC(=O)NCc1cccc(Br)c1)C(=O)CS2`, the figure is 12.3%; as for `O=C(NCc1ccco1)C1CCN(C(=O)N2CCOc3ccc(Cl)cc32)CC1`, -23.4%.
As for `COc1ccc(S(=O)(=O)n2nc(C)c(S(=O)(=O)N3CCCCCC3)c2C)cc1OC`, the figure is 22.2%; as for `COc1ccc(Cl)cc1S(=O)(=O)N1CCN(Cc2cccc(F)c2)CC1`, 6.83%.
On to `CCCOc1ccc(C(=O)N(Cc2cccs2)c2ccc(C)cc2)cc1`, for which the inhibition came out at 2.75%.
As for `COc1ccc(-c2c3c(nc4sc(C(=O)Nc5ccc(F)cc5)c(N)c24)CC(C)(C)CC3=O)cc1`, the figure is -0.661%.
As for `CCOC(=O)c1c(C)oc2ncnc(NCCCN3CCN(c4cc(C)ccc4C)CC3)c12`, the inhibition worked out at 14.1%.
As for `CCOC(=O)c1ccc(NC(=O)C2CCN(C(=O)N3CC(C)Oc4ccc(C)cc43)CC2)cc1` (configuration not stated), the inhibition stood at 20.2%.
Turning to `COc1cc(Cl)c(C)cc1Nc1nc2ccccc2nc1NS(=O)(=O)c1ccccc1`, the inhibition was determined as 3.03%.
In the case of `Cc1cccc(C(=O)Nc2ccc(-c3nc4cc(C(C)C)ccc4o3)cc2)c1`, the inhibition was -12.8%.
As for `Cc1ccc(N2CCN(C(=O)NCc3noc4ccccc34)CC2C)cc1` (configuration not stated), the figure is -17.1%; as for `COc1ccccc1N1CCN(C(=O)c2cnn(-c3ccc(C)c(C)c3)c2C2CCN(C(=O)OC(C)(C)C)CC2)CC1`, 8.58%; as for `CCCCC(CC)CNC(=O)c1ccc2c(=O)n(CCOC)c(=O)[nH]c2c1` (configuration not stated), 25.7%.
As for `CC(C)(C)c1ccc(C(=O)NCC(c2cccs2)S(=O)(=O)c2ccc(F)cc2)cc1` (configuration not stated), the figure is 28%; as for `CC(=O)c1cccc(S(=O)(=O)N2CCN(c3ccccc3F)CC2)c1`, 14.9%; as for `O=C(CCC(=O)N1CCc2ccccc21)Nc1ccccc1`, active: 36.1%.
With `CCc1sc(Nc2ccc(Cl)cc2)nc1-c1cc2cccc(OC)c2oc1=O`, the inhibition was -9.81%.
In the case of `COc1ccc(-c2noc(N3CCN(c4cccc(Cl)c4)CC3)n2)cc1OC`, the inhibition is -4.18%.
Take `CC(C(=O)Nc1ccc(F)c(Cl)c1)N1Cc2ccccc2C1=O` (configuration not stated): the inhibition is -18.1%.
For `Cc1cc(OCC(=O)Nc2cc(-c3nc4ccccc4[nH]3)ccc2C)ccc1Cl`, the inhibition was -2.24%.
Consider `CCSc1oc(-c2ccc(F)cc2)nc1S(=O)(=O)c1ccc(C)cc1`, for which the inhibition was -23.3%.
On to `CCOc1ccc(C(=O)CSc2nnc3cc(C)c4ccccc4n23)cc1`, for which the inhibition amounted to 13.8%.
The value for `Cc1ccccc1C(=O)Nc1nnc(SCc2cc(=O)n3ccccc3n2)s1` was -12.2%; that for `CCOc1cc(C(=O)Nc2nnc3n2CCS3)cc(OCC)c1OCC` was -5.24%; that for `COc1ccccc1CNC(=O)COc1cc(=O)n(C)c2ccccc12` was -3.37%.
Turning to `COc1ccc(NC(=O)CCN2CCN(CCO)CC2)c(OC)c1`, the inhibition is -6.29%.
As for `CCCCn1c(N)c(N(CC(C)C)C(=O)C2CC(=O)N(c3ccc4c(c3)OCCO4)C2)c(=O)[nH]c1=O` (configuration not stated), the figure is active: 39.5%; as for `O=C(Nc1ccc2nc(SCc3ccccc3)sc2c1)c1cccc(F)c1`, 2.49%.
On to `COc1ccc(OCCSc2nc(C)c(Cc3ccccc3)c(=O)[nH]2)cc1`, for which the inhibition is -16.6%.
In the case of `COc1ccccc1Cn1cc(C(=O)c2ccc(Cl)cc2)c(=O)c2cc3c(cc21)OCCO3`, the inhibition was -4.72%.
For `COc1ccc(Oc2nc3c(c(=O)n(C)c(=O)n3C)n2Cc2ccccc2Cl)cc1`, the inhibition was -11.2%.
As to `Cc1ccc(CN2CCC(CNC(=O)c3cc4ccc5cccnc5c4[nH]3)CC2)cc1`, the inhibition is -14.7%.
The value for `CCOc1cc2sc(N3CCC(C(=O)Nc4ccccc4Cl)CC3)nc2cc1Br` was 1.66%; that for `CN(C)C(CNC(=O)c1cccc(C(F)(F)F)c1)c1ccco1` (configuration not stated) was active: 31.3%.
Consider `Cc1ccc(-c2nn(CC(=O)NC3CCCC3)c3c2cnc2ccc(F)cc23)cc1C`, for which the inhibition is -0.32%.
As for `Cc1cc(S(=O)(=O)C(CNC(=O)COc2ccccc2)c2cccs2)ccc1F` (configuration not stated), the figure is 8.92%; as for `COc1ccc(OC)c(CNC(=O)c2cc3cc4ccc(OC)cc4nc3o2)c1`, 1.07%.
For `COc1ccc(-c2noc(COc3cc(C)c(Br)c(C)c3)n2)cc1OC`, the inhibition is -10.9%.
In the case of `Cc1cc(NC(=O)c2ccccc2Cl)ccc1NC(=O)c1ccccc1`, the inhibition turned out to be 8.01%.
Consider `COc1ccccc1OCc1ccc(C(=O)N/N=C/c2ccco2)cc1`, for which the inhibition is active: 43.6%.
As for `COC(=O)[C@@H](N)Cc1ccc(O)c(O)c1`, the figure is active: 80.9%.
The value for `Cc1ccc(C(=O)/C=C/c2cn(CC(O)CN3CCc4ccccc43)c3ccccc23)cc1` (configuration not stated) was 2.53%; that for `Cc1cc(-n2c(C)nc3ccccc3c2=O)ccc1NC(=O)c1ccc(C)c([N+](=O)[O-])c1` was 12.2%.
Turning to `CCc1nc2sc3c(N4CCC(C)CC4)ncnc3c2c2c1CCCC2`, the inhibition is -1.23%.
In the case of `Cc1ccc(CN(C(=O)COc2ccc(Cl)c(C)c2)c2ccccn2)o1`, the inhibition is 6.03%.
As for `O=C(CN1C(=O)COc2ccc(S(=O)(=O)N3CCOCC3)cc21)N1CCN(c2cccc(C(F)(F)F)c2)CC1`, the figure is 14.4%.
On to `COc1cc(C2c3c(-c4c(C)cc(C)cc4O)n[nH]c3C(=O)N2CCO)cc(OC)c1OC` (configuration not stated), for which the inhibition worked out at 10.4%.
The value for `Cc1ccc(-c2cc(-c3ccc4c(c3)NC(=O)CO4)nc3c2COc2ccc(C)cc2-3)cc1` was 6%; that for `CN(C)S(=O)(=O)c1ccc(C(=O)NCCS(=O)(=O)N2CCN(c3ccccc3)CC2)cc1` was -15.1%; that for `Cc1nc2nc(SCc3c(F)cccc3Cl)nn2c(C)c1Cc1ccccc1` was 11.8%.
The value for `COCCNC(=O)C(=O)NCC(c1cccnc1)N1CCN(c2ccccc2OC)CC1` (configuration not stated) was 7.76%.
As for `CC(C)(C)NC(=O)c1cnn(-c2ccccc2)c1C1CCN(C(=O)OC(C)(C)C)CC1`, the figure is -3.19%; as for `O=C(NCc1ccccc1Cl)c1cc2c(s1)-c1ccccc1SC2`, -4.02%.
For `O=C(Cn1ncc2c3ccccc3n(Cc3ccccc3F)c2c1=O)NC1CCCCCC1`, the inhibition worked out at 7.24%.
Consider `Cc1ccc(CSc2ccc(-c3cccs3)nn2)cc1`, for which the inhibition was found to be 4.55%.
`O=S(=O)(Nc1cccc(-c2ccc(N3CCCCCC3)nn2)c1)c1ccccc1F`: the inhibition is -2.9%.
As for `CCCNC(=S)NC1CC2CCC(C1)N2Cc1ccccc1` (configuration not stated), the figure is active: 67.3%; as for `COc1cc(C(=O)NCC(c2cccnc2)N2CCc3ccccc3C2)cc(OC)c1OC` (configuration not stated), 21.4%.
As to `CCC(=O)Nc1ccccc1-c1nc2ccccc2n(CC(=O)c2ccc(C)c(C)c2)c1=O`, the inhibition is 15.7%.
As for `COc1cccc(NC(=O)CSc2nc3c([nH]c4ccccc43)c(=O)n2-c2ccccc2)c1`, the figure is 6.92%.
As for `CCCN1C(=O)c2[nH]nc(-c3ccccc3O)c2C1c1cccc(OCc2ccccc2)c1` (configuration not stated), the figure is -5.69%; as for `Cc1ccc(NC(=O)CSc2nnc(C)n3c2cc2sccc23)c(C)c1`, -9.8%; as for `COc1cc(OC)c(NC(=O)C(CC(C)C)N2Cc3ccccc3C2=O)cc1Cl` (configuration not stated), -16.9%.
Regarding `CCOc1ccccc1NC(=O)CSc1cn(CC(=O)N2CCCCCC2)c2ccccc12`, the inhibition is 7.58%.
The value for `Nc1nonc1-c1nc2ccccc2n1CC(=O)Nc1cccc(C(F)(F)F)c1` was -5.56%.
As for `COc1ccc(C)cc1NC(=O)CSc1ncc2c(n1)-c1ccc(Cl)cc1N(Cc1ccccc1)S2(=O)=O`, the figure is 5.79%.
As to `Cc1ccc(NC(=O)CCN2C(=O)c3ccccc3Sc3ncccc32)cc1`, the inhibition was found to be 8.66%.
`CC1=C(C(=O)Nc2ccccc2)C(c2ccc(F)cc2)n2nc(SCc3cc(C)ccc3C)nc2N1` (configuration not stated): the inhibition was -4.49%.
The value for `COC(=O)c1ccc(NC(=O)C(=O)NCCc2csc3nc(-c4ccccc4F)nn23)cc1` was 7.51%; that for `NC(=O)c1cc2ccccc2o/c1=N/NC(=O)c1cccc(Cl)c1` was active: 49%.
The value for `CCN(CC)S(=O)(=O)c1ccc2c(c1)N(CC(=O)Nc1cccc(C)c1C)C(=O)C1CCCN21` (configuration not stated) was 7.51%; that for `COc1cccc(-c2noc(-c3cc4ccccc4oc3=O)n2)c1OC` was -0.614%.
Consider `CC(=O)Nc1ccc(OCC(O)CN2CCN(c3cc(Cl)ccc3C)CC2)cc1` (configuration not stated), for which the inhibition is active: 92.6%.
Take `O=C(NCc1ccc2c(c1)CCN2C(=O)c1ccc(F)cc1)c1c(F)cccc1F`: the inhibition amounted to 8%.
The value for `CCOCCCNC(=O)Cn1ncc2c([nH]c3ccccc32)c1=O` was 15.8%; that for `CCN(C(=O)COC(=O)/C(C#N)=C/c1ccc(OC)cc1)C1CCS(=O)(=O)C1` (configuration not stated) was active: 35.6%; that for `Clc1ccccc1CNCCCSc1nnnn1-c1ccccc1` was -9.6%.
For the compound `CCOc1ccc(/C=C/c2nc(C#N)c(NCc3ccc(OC)cc3)o2)cc1`, the inhibition was -8.57%.
As for `COCCn1c(C)cc(O)c(C(c2ccccc2)N2CCCCC2)c1=O` (configuration not stated), the figure is 2.5%; as for `CCc1ccccc1NC(=O)N1CCN(Cc2nc3ccc(C)cc3o2)CC1`, 1.57%.
In the case of `Cc1ccc(-n2ncc3c(Nc4ccc(Oc5ccccc5)cc4)ncnc32)cc1`, the inhibition was found to be 14.1%.
